Data from PubChem BioAssay AID938 (National Center for Advancing Translational Sciences (NCATS), 2007).
Out of some 73,000 compounds screened, about 1,800 (2.5%) were called active. The inconclusive results got no clear call from the source; some entries with a clear call stand among them for comparison. Calls follow the shape of the dose curve; as a rule, active = well fitted activation curve with a large enough effect; inconclusive = small, poorly fitted or top-dose-only effect; inactive = no such curve, though single readings can be large or run the other way. Potencies of inconclusive entries are left out as doubtful fits.
Potency is read from the fitted curve at half-maximal effect; tags tell the direction and shape of the fitted curve.

Assay: qHTS Assay for Agonists of the Thyroid Stimulating Hormone Receptor: Activators of Intracellular cAMP Concentrations in Parental HEK 293; also: nearly all actives have a fitted effect of over 55% in size; as to activation: % of control where 0% means no effect
Settings: parental HEK293 CNG cAMP sensor, membrane potential fluorescence; activation: at 57.1 µM (top of the series) unless noted
Method in brief: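 Counterscreen for endogenous-receptor signalling: CNG-channel HEK 293 cells report cAMP rise by membrane depolarization. After 60 min dye equilibration with 100 uM RO 20-1724, compounds incubated 30 min before bottom-read fluorescence at 590 nm.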
In the case of `Cc1ccc(-n2nc(C)c(C3C(C#N)=C(N)OC4=C3C(=O)CC(C)(C)C4)c2Cl)cc1` (stereo not given), the Potency is reported as active: 25.1 µM. With `CN1CCN(CC(=O)Nc2c(C(=O)C3CC3)oc3ccccc23)CC1` the Potency was inconclusive [activator, partial curve]. For `COc1cccc(Cn2c(-c3nonc3N)nc3ccccc32)c1`, the Potency was active: 25.1 µM. With `Cc1ccc2c(c1[N+](=O)[O-])C(=O)c1ccccc1C2=O` the “activation” value was inactive: -4.2%. In the case of `NC[C@@H]1O[C@H](C23CC4CC(CC(C4)C2)C3)Cc2c1ccc(O)c2O`, the Potency is reported as “inactive”. For `Cc1cccc2[nH]c3c(=O)n(CCN4CCNCC4)cnc3c12`, the “activation” value was inactive: 1%. For `Cn1nc(-c2ccc(OCC(=O)Nc3cccnc3)cc2)c2ccccc2c1=O`, the “activation” value was inactive: -5.62%. In the case of `CC1CCN(C(=O)Cn2c(SCC(=O)Nc3nccs3)nc3ccccc32)CC1`, the Potency is reported as inconclusive [activator, partial curve]. For `COc1ccccc1-c1nc(NC2CC2)c2ccccc2n1`, the Potency was inconclusive [activator, partial curve]. In the case of `O=C1SC(SCc2ccccc2)=N/C1=C\c1ccco1`, the Potency is reported as inconclusive [activator, single point]. With `CC(C)(C)c1ccc(O)c(O)c1` the “activation” value was inactive: -7.04%. With `CCC(OC(=O)c1cc2sccc2n1C)C(=O)NCc1ccco1` (stereo not given) the Potency was inconclusive [activator, partial curve]. For `CCCCOc1ccccc1Cn1c(=O)oc2ccc(C)cc21`, the Potency was active: 15.8 µM. With `Cc1ccc(C)c(NC(=O)c2ccccc2O)c1` the Potency was inconclusive [activator, single point]. In the case of `Cc1cc(S(=O)(=O)N(Cc2ccccc2)Cc2ccc(N(C)C)cc2)ccc1-n1cnnn1`, the “activation” value is reported as inactive: -5.13%. With `CC(=O)Nc1cccc(NC(=O)C2CCCN2C(=O)Nc2cccc(C)c2)c1` (stereo not given) the Potency was inconclusive [activator, full curve, poor fit]. With `CCN(CC)CCCn1c(-c2ccccc2)nc2c(N(CCOC)CCOC)nc(C)nc21` the Potency was inconclusive [activator, single point]. With `CCOC(=O)N1CCC(NC(=O)C2CCN(c3ccc(N4CCOCC4)nn3)CC2)CC1` the Potency was inconclusive [activator, single point]. With `CC(C)c1nc2oc3c(NCc4cccnc4)ncnc3c2c2c1CCC2` the Potency was inconclusive [activator, single point]. In the case of `Cc1nc(NCc2ccccn2)c2ccccc2n1`, the Potency is reported as inconclusive [activator, partial curve]. In the case of `CC1(C)[C@@H]2CC[C@]1(CC(=O)O)[C@H](Cl)C2`, the activation is reported as inactive: -9.88% [at 11.4 µM]. With `COc1ccccc1N1CCN(C(=O)c2ccc(S(=O)(=O)N3CCCC3)cc2)CC1` the Potency was inconclusive [activator, single point]. For `CN1CCN(c2cc(-c3ccc(N(C)C)cc3)ncn2)CC1`, the “activation” value was inactive: -9.89%. In the case of `COc1ccc(S(=O)(=O)N(Cc2ccc(OC)c(OC)c2)Cc2ccco2)cc1`, the Potency is reported as inconclusive [activator, single point]. In the case of `c1cncc(CNc2ncncc2-c2ccc3c(c2)OCO3)c1`, the Potency is reported as inconclusive [activator, full curve, poor fit]. With `O=C(O)CCc1ccc(-c2ccccc2)n1-c1cccc(O)c1` the “activation” value was inactive: 14.1%. For `O=C1OCCC1S(=O)(=O)c1ccc2ccccc2c1` (stereo not given), the Potency was inconclusive [activator, single point]. In the case of `CCn1c(=O)cc(SCC(=O)N2CCC(C)CC2)c2ccccc21`, the Potency is reported as inconclusive [activator, single point]. With `COc1cccc(-c2nc(-c3ccc(NC(=O)c4cccnc4)cc3)no2)c1` the “activation” value was inactive: -2.4%. In the case of `CC(C)OC(=O)CC12CN3CC(CC(=O)OC(C)C)(CN(C1)C(=O)c1ccccc1C3=O)C2=O`, the Potency is reported as inconclusive [activator, single point]. For `CCOC(=O)c1ccccc1NC(=O)Cn1c(-c2nonc2N)nc2ccccc21`, the Potency was active: 25.1 µM. For `Cc1cc(=O)[nH]c(N2CCN(Cc3ccccc3)CC2)n1`, the Potency was inconclusive [activator, partial curve]. With `Cc1cnc(CNc2cc(-c3c(C)noc3C)ncn2)cn1` the Potency was inconclusive [activator, single point]. In the case of `Cc1nc(NC2CCCCC2)c2nc(-c3ccccc3)n(C(C)CN(C)C)c2n1` (stereo not given), the Potency is reported as inconclusive [activator, single point]. In the case of `Cc1ccc(CCNC(=O)C2CCCN(C(=O)c3cc4sccc4n3C)C2)cc1` (stereo not given), the Potency is reported as inconclusive [activator, partial curve]. For `COC(=O)c1cc(OC)c(OC)cc1NC(=O)CC1CCCCC1`, the Potency was inconclusive [activator, single point]. In the case of `COCCn1c(=O)[nH]c2cc(C(=O)NCc3cccnc3)ccc2c1=O`, the Potency is reported as inconclusive [activator, single point]. For `CC(Sc1nnc(-c2ccc(O)cc2)o1)C(=O)Nc1cccc2ccccc12` (stereo not given), the Potency was inconclusive [activator, partial curve]. In the case of `COc1ccc2occ(NC(C)=O)c2c1`, the Potency is reported as inconclusive [activator, partial curve]. In the case of `O=C(NCc1ccco1)c1cccs1`, the Potency is reported as inconclusive [activator, single point]. For `CCOC(=O)C1CCCN(c2nc3ccccc3nc2C(C#N)C(=O)OCC)C1` (stereo not given), the “activation” value was inactive: 39.7%. In the case of `COc1ccc(CNC(=O)C(C#N)c2nc3ccccc3nc2N2CCCC2)cc1` (stereo not given), the “activation” value is reported as inactive: 4.95%. With `CCCCC(CC)CNCC(CC)CCCC` (stereo not given) the “activation” value was inactive: 5.28%. With `Cc1cc(-n2c(C)cc(C(=O)CSc3nnc4sc5ccccc5n34)c2C)no1` the “activation” value was inactive: 1.71%. In the case of `Cc1cccc(N(CC(=O)NC2CCCCC2)C(=O)CCC(=O)Nc2ccccn2)c1`, the Potency is reported as inconclusive [activator, partial curve]. In the case of `CCOc1ccccc1N(CC(=O)OC)S(=O)(=O)c1ccccc1`, the Potency is reported as inconclusive [activator, partial curve]. For `COc1ccc(CNc2ncncc2-c2cccc(C#N)c2)c(OC)c1`, the Potency was inconclusive [activator, partial curve]. For `CSc1ncnc2nc[nH]c12`, the “activation” value was inactive: 1.15%. With `CN1CCN(c2ncncc2-c2cccnc2)CC1` the Potency was inconclusive [activator, single point]. In the case of `O=c1[nH]c2[nH]c(=S)[nH]c(=S)c2[nH]1`, the activation is reported as inactive: 6.76% [at 11.4 µM]. In the case of `CC(C)Oc1ccc(C(=O)N2CCCc3ccccc32)cc1`, the Potency is reported as inconclusive [activator, partial curve]. In the case of `CC(=O)c1coc2ccc(OCCN3CCCCC3)cc12`, the Potency is reported as inconclusive [activator, single point]. With `O=C(O)CNC(=O)c1ccccc1O` the activation was inactive: 11.3% [at 11.4 µM]. With `COc1ccc(C)cc1NC(=O)CSc1nnc(-c2ccc(C)cc2)o1` the Potency was inconclusive [activator, full curve]. With `O=S(=O)(Nc1ccc(Cl)cc1Cl)c1cc(Cl)ccc1Cl` the “activation” value was inactive: 8.08%. In the case of `COC(=O)c1c(C(=O)OC)c2cc(C)ccn2c1Cl`, the Potency is reported as active: 20 µM. With `COc1ccccc1COCC(O)CNCC1(N2CCCCC2)CCCCC1` (stereo not given) the Potency was inconclusive [activator, partial curve]. With `CN1CCN(S(=O)(=O)c2ccc(=O)[nH]c2)CC1` the Potency was inconclusive [activator, single point]. With `CCN(CC)C(=O)c1sc(N)c(C#N)c1C` the Potency was inconclusive [activator, single point]. With `CN1CCN(c2ccnc(-c3ccccc3C(F)(F)F)n2)CC1` the Potency was active: 31.6 µM. For `O=C(O)CCSCC(=O)c1ccc2c(c1)OCCO2`, the “activation” value was inactive: 13.9%. For `CN1CCC2(CC1)CCN(S(=O)(=O)c1ccccc1)CC2`, the Potency was active: 3.98 µM. With `FC(F)(F)c1ccccc1-c1nc(NCCN2CCOCC2)c2ccccc2n1` the “activation” value was inactive: 7.99%. For `COc1cccc(OCc2nnc(SCC(=O)NCc3ccco3)n2CCc2ccccc2)c1`, the Potency was inconclusive [activator, partial curve]. With `O=C(Cc1nc2ccccc2s1)c1ccc(O)cc1O` the “activation” value was inactive: -37.3%. For `C=CCC1CCCCC12NC(=O)NC2=O` (stereo not given), the “activation” value was inactive: 10.4%. With `FC(F)(F)c1cc(-c2ccco2)nc(-n2cnc3ccccc32)n1` the Potency was inconclusive [activator, full curve]. For `Cc1c(C(=O)Nc2ccc3c(c2)OCO3)sc2nc(-c3ccccc3)cn12`, the Potency was inconclusive [activator, partial curve]. For `Cc1nnc(SC(C)C(=O)Nc2ccc(Cl)cn2)n1Cc1ccccc1` (stereo not given), the Potency was inconclusive [activator, partial curve]. With `O=C(O)CCSc1nc2ccccc2n1CCOc1ccccc1` the “activation” value was inactive: 24.7%. With `CCN1C(=O)[C@H]2[C@H]3[C@H](O)[C@H](O)C/C(=N/O[C@@H]4O[C@H](COC(C)=O)[C@@H](OC(C)=O)[C@H](OC(C)=O)[C@H]4OC(C)=O)[C@@H]3CC[C@@H]2C1=O` the activation was inactive: -1.63% [at 11.4 µM]. For `O=C(Nc1ccc(Cl)c(Cl)c1)N1CC=CCC1`, the Potency was inconclusive [activator, single point]. In the case of `CC1(C)C(=O)Nc2ccccc2N1C(=O)COc1ccc(S(=O)(=O)N2CCOCC2)cc1Cl`, the Potency is reported as inconclusive [activator, single point]. For `COc1ncc2nc(CCc3ccccc3)c(=O)n(Cc3ccc(F)cc3)c2n1`, the Potency was inconclusive [activator, partial curve]. With `C=CCn1c(SC(C)C(=O)NC2(C#N)CCCCC2)nnc1-c1ccc(OC)cc1` (stereo not given) the Potency was inconclusive [activator, partial curve].
